Data reported in the supplement of paper PMC3334620.
The full ranking holds about 33,000 sequences; the median of “E-score (-0.5 to 0.5)” is about -0.04, and the highest 2% start at about 0.36. The list shows a part of the results.

These sequences were tested against T1, Hmlalpha2 (UniProt P0CY09) (assay: PBM E-score (8-mer binding enrichment) (E-score (-0.5 to 0.5)); higher = stronger / more preferred TF binding; most listed sequences are background and not binding sites). Details: protein concentration: 200 nM; construct: GST-full length.
T1 sequence: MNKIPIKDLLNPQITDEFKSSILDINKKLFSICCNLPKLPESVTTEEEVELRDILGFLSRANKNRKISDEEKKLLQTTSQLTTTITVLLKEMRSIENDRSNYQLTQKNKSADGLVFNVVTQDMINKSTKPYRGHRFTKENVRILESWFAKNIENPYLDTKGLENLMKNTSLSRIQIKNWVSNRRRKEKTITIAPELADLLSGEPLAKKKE
Summary of the method: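 Using PURExpress in vitro transcription/translation, GST-tagged yeast transcription factors were made in full-length or DNA-binding-domain form. These were applied at about 100-200 nM to double-stranded universal all-10-mer Agilent arrays, and bound protein was detected with fluorescent anti-GST. Scans were normalised with masliner before the Universal PBM Analysis Suite assigned E-scores to ungapped eight-base words pooled with their reverse complements.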

Sequence	PBM E-score
CTGTCGCC	-0.274
GCGAGTCC	-0.246
CGCCTGGA	-0.187
GAGCTCTA	-0.0505
CTTGAGCC	-0.427
AATCAACA	0.37
ACGTAAGA	0.29
TAATTCAA	0.342
GACTCGAA	-0.317
GATGGCGC	-0.141
CGTGGATC	-0.208
ATAGGCAT	-0.0355
CTGTCAAA	0.18
GTCACACA	0.15
ACTACTAT	0.175
TCGATAAA	0.139
CACTTTGG	-0.203
AGACCTAC	-0.0018
CATCTAAG	-0.176
GCCTTCAC	-0.157
AGGGGTTA	-0.0258
CAAATTGG	0.066
AAATGGGA	-0.251
AGACGGCC	-0.238

Sequence	PBM E-score
GCGAAAAA	0.0302
TAATCGAA	0.247
CCTAGCTC	-0.194
AACATGCA	0.417
AGACCCTG	-0.153
GGTTTTAA	0.15
CCACTGCA	-0.145
CAAGATGG	-0.0754
GGCTTGAA	-0.12
CCAACCCG	-0.242
GGTGTGAA	0.207
CGTTGCAG	-0.143
CCTAATAG	-0.273
ACATTAGA	-0.00519
GTGCTTTA	0.123
CACACATG	0.169
AATTCGTA	0.134
CCTTTGCC	-0.185
GAGAGCGA	-0.162
CCGGTTGC	-0.242
ACACCGTG	0.237
AATGGCGA	-0.0465
TCGTGGAA	-0.00287
AAGAAGCC	-0.0183

Sequence	PBM E-score
CGAGATTA	0.0971
ACATTACT	0.303
GAGTAATA	0.286
CCATTAAC	0.255
AGACTCTC	-0.227
CTGTGCGC	-0.129
GGGCGGAC	-0.386
TACCTAAA	0.0538
GTTGAAAC	0.168
ATAACTGA	0.0824
TGGCACAA	-0.0502
CTTCACAC	0.251
AGGTTCAA	0.155
ATAGTAGG	-0.125
AGTTGAAA	0.0609
CGTTTTGA	0.216
CCAGTGGA	-0.212
ATATGTGA	0.234
CCCTCTCC	-0.226
CCGACAAG	-0.0211
CATCTGCG	0.0508
AGATGCGA	-0.184
CTCCGGGA	-0.259
CCAAGAGA	-0.0759

Sequence	PBM E-score
GGTTCGGA	-0.199
CACGTTGA	0.302
GTTTAGCA	0.0847
ATTTAACC	0.0603
ATGAGCGA	-0.138
AGCAAACG	-0.0759
TCTACAGA	0.133
ACCTCGGA	-0.155
AAGCGAGA	-0.275
GCGGCACA	-0.306
GACCCGGC	-0.255
CAAATGAC	-0.00664
GCGTAGTA	0.212
AATAGCAC	-0.17
GTCATCAA	0.119
GCCAGGCC	-0.231
AACTCAAC	0.233
ATGGGATG	-0.154
ACCTAAGG	-0.199
ATTTTCGC	0.0184
CTGGCACA	-0.106
AAGACCGT	-0.0822
